# Out of some 360,000 compounds screened, about 6,000 (1.7%) were called active. This list was built around the results that the source calls inconclusive (neither active nor inactive); the mix of calls is not that of the screen. Calls come from the whole dose curve; as a rule, active = well fitted cell-killing curve with a large enough effect; inconclusive = small, poorly fitted or top-dose-only effect, or effect the other way; inactive = flat fitted curve, though single readings scatter. No potency is given beside an inconclusive call; the fits are too rough.
# Test: qHTS for induction of synthetic lethality in tumor cells producing 2HG: qHTS for the HT-1080-NT fibrosarcoma cell line;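 note: NT is the 2HG producing partner of a matched IDH1 knockdown line; nearly all actives have a fitted effect of over 55% in size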;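 for activity, negative = less viability: 0% = DMSO-treated cells and -100% = media-only wells without cells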
# Conditions: HT-1080-NT fibrosarcoma viability, CellTiter-Glo ATP luminescence, 48 h; activity, negative = less viability: at 46.1 µM (top of the series) unless noted
# Procedure, shortened: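 Compounds were tested in concentration-response format on HT-1080-NT cells for 48 hours at 37 degrees C. Cell viability came from CellTiter-Glo luminescence; curves were classified by r2, response magnitude and activity.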
# Potency is the fitted concentration of half-maximal effect; tags give direction and shape of the fitted curve.
SMILES,Potency,"activity, negative = less viability"
CC(=O)N1CCN(Cc2nc3cc(NC(=O)c4ccccc4C)ccc3n2C)CC1,inactive,–
O=C(CONS(=O)(=O)c1ccc(Cl)cc1)NCCNc1ncc(C(F)(F)F)cc1Cl,"inconclusive [cytotoxic, single point]",–
O=C1NC(=O)/C(=C/c2ccc(OS(=O)(=O)c3ccc(F)cc3F)cc2)N1,–,inconclusive: -0.295% [cytotoxic]
CCOc1ccccc1C(=O)NCC(=O)OCC(=O)c1ccc2c(c1)OCCO2,inactive,–
Cc1ccc(SCc2ccc(C(=O)NCc3cccnc3)cc2)cc1,inactive,–
O=C(NCCc1ccc(Cl)cc1)C1CCCN(S(=O)(=O)N2CCCCCC2)C1 (stereo not drawn),inactive,–
COc1cc(C(=O)Nc2ccc(Cl)c([N+](=O)[O-])c2)cc(OC)c1OC,inactive,–
COc1ccc(OCCN2CCC(C(=O)NC(c3ccc(Cl)cc3)c3cccnc3)CC2)cc1 (stereo not drawn),"inconclusive [cytotoxic, single point]",–
COc1ccc(C2c3[nH]c4ccccc4c3CCN2C(=O)c2ccc(=O)n(C)n2)c(F)c1 (stereo not drawn),"inconclusive [cytotoxic, partial curve]",–
CN(CCc1ccccc1)C(=O)c1ccc(NC(=O)Cc2ccc(NC(=O)C3CCN(C(=O)CCc4ccccc4)CC3)cc2)cc1,"inconclusive [cytotoxic, single point]",–
CN(CC(=O)Nc1ccccc1Sc1ccccc1)C1CCCCC1,"inconclusive [cytotoxic, single point]",–
O=[N+]([O-])c1cccc(OCCN2CCC(Cc3ccccc3)CC2)c1,"inconclusive [cytotoxic, single point]",–
CCOC(=O)N1CC=C2C(C#N)=C(N)C(C#N)(C#N)[C@H](c3ccsc3)[C@H]2C1,"inconclusive [cytotoxic, single point]",–
CCc1nc2c(OCc3ccc(F)cc3)cccn2c1N(C)C(=O)COc1ccccc1,"inconclusive [cytotoxic, single point]",–
CC(=O)n1cc(N(C(=O)CCl)c2ccc(Cl)cc2)c2ccccc21,active: 2.31 µM,–
Cc1ccc(-c2cc(-c3ccccc3C)[nH]n2)c(O)c1,active: 20.6 µM,–
Cc1nc2ccccc2c(N)c1C(=O)/C=C/c1ccccc1,"inconclusive [cytotoxic, partial curve]",–
CCOC(=O)N1C(=O)C2(CCCCC2)N(c2ccccc2Cl)C1=S,"inconclusive [cytotoxic, single point]",–
CC(=O)c1cccc(-c2ccnc3c2CC(C(=O)NCc2ccc(F)c(F)c2)O3)c1 (stereo not drawn),"inconclusive [cytotoxic, full curve]",–
O=C(N/N=C/c1c[nH]c2ccccc12)C1COc2ccccc2O1 (stereo not drawn),active: 3.66 µM,–
CC(C)C[C@H]1CNC(=S)N1C[C@H]1CCCN1C[C@H](Cc1ccccc1)N1C[C@H](Cc2ccc(O)cc2)N(CC2CCCCC2)C1=S,active: 14.6 µM,–
COCCN1Cc2cccc(C(=O)Nc3ccc(C)cc3)c2C1=O,inactive,–
COC(=O)[C@@]12C[C@@H](CC(=O)NCc3cccc(C(F)(F)F)c3)C(=O)N(CCc3ccc(OC)c(OC)c3)C1=CCC(C)(C)C2,"inconclusive [cytotoxic, single point]",–
O=c1[nH]c(NCc2ccco2)nnc1Cc1ccccc1Cl,"inconclusive [cytotoxic, full curve]",–
CCNC(=O)C1(C)CCN(Cc2ccc(C(F)(F)F)cc2)C1 (stereo not drawn),inactive,–

SMILES,Potency,"activity, negative = less viability"
COc1ccccc1CNc1nc(NCc2ccccc2F)c2sccc2n1,active: 23.1 µM,–
Cn1cc(/C=C/c2cc[n+](C)cc2)c2cc(Cl)ccc21,inactive,–
Cc1ccc(S(=O)(=O)Nc2ccc(NC(=O)Nc3cccc(C(F)(F)F)c3)cc2)cc1,"inconclusive [cytotoxic, single point]",–
CCNC(=O)C1(C)CCCN(C(=O)c2sc(-c3ccccc3)nc2C)C1 (stereo not drawn),inactive,–
OCCC1CN(Cc2cccc3nonc23)CCN1C1CCCCC1 (stereo not drawn),inactive,–
CCN(CC)c1ccc(/C=N\NC(=O)c2cccc3cc[nH]c23)cc1,"inconclusive [cytotoxic, partial curve]",–
O=[N+]([O-])c1ccc(NS(=O)(=O)c2ccccc2)c(Cl)c1,active: 6.51 µM,–
Cc1ccc(Cc2ccc(C(=O)NNC(N)=S)o2)cc1,inactive,–
CC(C)C1C(=O)N(Cc2cn(CC3CCCCC3)nn2)CCS(=O)(=O)N1Cc1ccc(-c2ccc(Cl)nc2)cc1 (stereo not drawn),"inconclusive [cytotoxic, partial curve]",–
O=C(/C=C/c1cn(CC(O)CN2CCCCC2)c2ccccc12)c1ccccc1 (stereo not drawn),"inconclusive [cytotoxic, single point]",–
CC1(C(=O)NCC2CCOCC2)Cc2c(-c3cccc(C(N)=O)c3)ccnc2O1 (stereo not drawn),"inconclusive [cytotoxic, single point]",–
CCOC(=O)N1CCC(NC(=O)Cn2ncc3ccccc32)CC1,"inconclusive [cytotoxic, full curve, poor fit]",–
CCN1CCN(c2nc(-c3ccccn3)nc3ccccc23)CC1,active: 8.91 µM,–
CN(Cc1ccccc1)c1nc(N)c([N+](=O)[O-])c(NCc2ccccc2)n1,"inconclusive [cytotoxic, partial curve]",–
Cc1oc2ccc(O)cc2c1C(=O)c1ccc(Br)cc1,"inconclusive [cytotoxic, single point]",–
CN(C)c1cccc(C(=O)OCC(=O)NC(=O)NCc2ccccc2)c1,inactive,–
CC1(C)C2CCC1(C)C(OCCNCCOC(=O)Nc1ccccc1)C2 (stereo not drawn),"inconclusive [cytotoxic, single point]",–
O=C(NCCC1=CCCCC1)C1CCN(Cc2cnn(-c3ccccc3)c2-n2cccc2)CC1,"inconclusive [cytotoxic, partial curve]",–
CNC(=O)CSCc1cnn(-c2ccccc2)c1-n1cccc1,inactive,–
CN(C)c1ccc(C(=O)C(O)c2ccccc2)cc1 (stereo not drawn),inactive,–
CCOC(=O)c1ccc(NC(=O)CSc2ccc(-c3ccccn3)nn2)cc1,"inconclusive [cytotoxic, single point]",–
CCOc1ccc2[nH]c3c(N4CCc5ccccc5C4)ncnc3c2c1,active: 18.4 µM,–
O=C(CCCSc1ccccc1)Nc1ccc(Cl)c(S(=O)(=O)N2CCOCC2)c1,inactive,–
O=[n+]1cc(-c2ccc(Cl)cc2)n([O-])c2c1CCC2,"inconclusive [rising, partial curve]",–
COc1ccc(Nc2nc(S(=O)(=O)c3ccc(C)cc3)c(Cl)s2)cc1,active: 23.1 µM,–

SMILES,Potency,"activity, negative = less viability"
COc1cccc(-c2cc(C(=O)NCc3cccs3)no2)c1,"inconclusive [rising, partial curve]",–
CCN(CC)S(=O)(=O)c1ccc(-c2cn3ccccc3n2)cc1,inactive,–
COCCCN1C(=O)C(CC(=O)NC2CCCCC2)CC(C(=O)N2CCOCC2)=C1C (stereo not drawn),inactive,–
COc1ccc(C2CC(=O)Oc3ccc(OC)cc32)cc1 (stereo not drawn),inactive,–
COc1cc(C(=O)/C=C/c2cccnc2)ccc1O,"inconclusive [cytotoxic, single point]",–
Cc1ccc(Cl)cc1N1CCN(C(=O)c2ccc(NS(=O)(=O)c3c(C)noc3C)cc2)CC1,inactive,–
CC1CN(S(=O)(=O)c2cccc(C(=O)Nc3ccccc3N3CCCCC3)c2)CC(C)O1 (stereo not drawn),inactive,–
CCC(=O)NC1CCN(C(=S)NC)CC1,inactive,–
Cc1c(CN2CCN(CC(C)C)C(CCO)C2)[nH]c2ccc(Cl)cc12 (stereo not drawn),"inconclusive [cytotoxic, single point]",–
O=C(Cc1coc2cc3c(cc12)CCC3)OCC(=O)N1CCCC1=O,inactive,–
Cc1ccsc1/C=N/NC(=O)c1ccc2nc[nH]c2c1,"inconclusive [rising, partial curve]",–
Oc1ccc(NCc2cccc(OCc3ccc(F)cc3)c2)cc1,"inconclusive [cytotoxic, single point]",–
CCOC(=O)c1c(NC(=O)/C=C/C(=O)O)sc(C)c1-c1ccc(C(C)(C)C)cc1,active: 8.2 µM,–
COCCn1cnc2c1c(=O)n(CC(=O)OCC(=O)NCC(F)(F)F)c(=O)n2Cc1ccccc1,inactive,–
COC(=O)c1cccc(NC(=O)NC(=O)c2ccc(Cl)cc2)c1,–,inconclusive: -18.4% [cytotoxic]
CC(C)C(N)c1csc(Nc2cc(Oc3ccccc3)ncn2)n1 (stereo not drawn),"inconclusive [cytotoxic, single point]",–
NNC(=O)CN1C(c2ccc(Cl)cc2)=Nc2ccc(Br)cc2C1c1ccccc1 (stereo not drawn),"inconclusive [cytotoxic, partial curve]",–
CC(C)c1ccc(NC(=O)Nc2cnccn2)cc1,"inconclusive [cytotoxic, partial curve]",–
COc1ccccc1CN(Cc1cc2cc(C)ccc2[nH]c1=O)Cc1nnnn1Cc1ccco1,"inconclusive [cytotoxic, single point]",–
O=C1C=C(Nc2ccc(O)cc2)C(=O)c2ccccc21,active: 25.9 µM,–
O=C(O)/C=C/C(=O)Nc1cccc2c1-c1ccccc1C2=O,"inconclusive [cytotoxic, single point]",–
COc1ccc(NC(C)C(=O)Nc2ccc(C#N)cc2)cc1Cl (stereo not drawn),"inconclusive [cytotoxic, single point]",–
CC(C)(CNC(=O)/C=C/c1ccc(F)cc1)CNC(=O)/C=C/c1ccc(F)cc1,"inconclusive [cytotoxic, partial curve]",–

# Source: PubChem BioAssay AID686970 (National Center for Advancing Translational Sciences (NCATS), 2013)
